In PubChem BioAssay AID1865 (National Center for Advancing Translational Sciences (NCATS), 2009):
Out of some 280,000 compounds screened, about 540 (0.19%) were called active. Inconclusive results (about 2%) are left out. Calls come from the whole dose curve; as a rule, active = well fitted activation curve with a large enough effect; inconclusive = small, poorly fitted or top-dose-only effect; inactive = flat fitted curve, though single readings scatter. This is a selection; strong and weak results do not stand in their true shares.

assay: Quantitative High-Throughput Screen for Regulators of Epigenetic Control; details: murine LDR cells, GFP reporter derepression, 30 h; series mostly up to 53.9 µM; GFP activation: at the top concentration; note: nearly all actives have a fitted effect of over 60% in size; for GFP activation: % of control where 0% means no effect
Summary of the method: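 Murine LDR cells bearing a silenced CMV-driven GFP reporter were exposed to compound for 30 h at 37 C. After PBS washes, GFP-positive cells (20-120 um objects) counted by laser-scanning microplate cytometry.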
Potency is the fitted concentration of half-maximal effect.

| SMILES | GFP activation | Potency |
| --- | --- | --- |
| Cn1cc(C(=O)N/N=C/C(Br)=C\c2ccccc2)ccc1=O | inactive: 6.76% | – |
| O=C(Nc1nc(-c2cccs2)cs1)c1ccc(S(=O)(=O)N2CCCCC2)cc1 | inactive: 0% | – |
| Cc1ccc(C(C)C)c(OCc2nnc(SCC(=O)Nc3ncc(C)s3)n2C)c1 | inactive: 0% | – |
| CCOc1cc(/C=C2/C(=O)ON=C2C)ccc1OCc1ccccc1 | inactive: -0.0837% | – |
| CCCCCCCCCCCCCCC[C@H](O)[C@H](N)CO | inactive: -0.144% | – |
| Oc1c(I)cc(Cl)c2cccnc12 | inactive: -1.37% [at 16.9 µM] | – |
| Nc1c(C(=O)Nc2ccc(S(=O)(=O)N3CCCC3)cc2)sc2nc3cc4c(cc3cc12)CCC4 | – | active: 3.55 µM |
| CCC(C)NC(=O)CSc1nc2cc3c(cc2c(=O)n1Cc1ccc(C(=O)NCCc2ccc(OC)c(OC)c2)cc1)OCO3 (stereo unspecified) | – | active: 11.2 µM |
| CCOC(=O)CN1C(=O)N[C@@H](c2ccccc2)C(C(C)=O)=C1C | inactive: -1.14% | – |
| O=C(C1=C[C@H](c2coc3ccccc3c2=O)C[C@H](OCCCCO)O1)N1CCOCC1 | inactive: -0.819% | – |
| O=C(c1ccc2nc(N3CCCCC3)sc2c1)N1CCN(c2ccccn2)CC1 | inactive: 1.28% | – |
| Cn1cccc1/C=C1\CC(C(C)(C)C)C/C(=C\c2cccn2C)C1=O (stereo unspecified) | – | active: 2.82 µM |
| N#Cc1c(NC(=S)NC(=O)c2ccccc2)sc2c1CCN(CCc1ccccc1)C2 | – | active: 5.62 µM |
| O=C(Nc1ccccc1)c1cc([N+](=O)[O-])ccc1Cl | – | inactive |
| CSc1nsc(/C=C/Nc2ccc(F)cc2F)c1C#N | – | active: 3.98 µM |
| CC(=O)[C@@]1(O)CC[C@H]2[C@H]3C[C@@H](C)C4=CC(=O)C=C[C@]4(C)[C@@]3(F)[C@@H](O)C[C@]21C | inactive: 0% [at 16.9 µM] | – |
| CC(C)(C)CC(=O)N1CCC(c2nc3c(nnn3Cc3c(F)cccc3Cl)c(=O)[nH]2)CC1 | inactive: -8.16% | – |
| COC(=O)C1(C(=O)OC)C/C=C\Cc2ccccc2[C@@H]1C[N+](=O)[O-] | – | inactive |
| COc1cc2nc3c(c([Si](C)(C)C(C)(C)C)c2cc1OC)Cn1c-3cccc1=O | – | active: 7.94 µM |
| COc1cccc2c1C(=O)c1c(O)c3c(c(O)c1C2=O)C[C@@](O)(C(=O)CO)C[C@@H]3O[C@H]1C[C@H](N)[C@H](O)[C@H](C)O1 | inactive: -0.027% | – |
| COc1ccc(-c2cc(C(F)(F)F)c3c(n2)sc2c(O)cc(=O)[nH]c23)c(OC)c1 | – | active: 11.2 µM |
| O=C(Cn1c(=O)n(-c2ccccc2)c(=O)c2ccc(C(=O)NCc3ccc4c(c3)OCO4)cc21)Nc1ccc(Br)cc1 | – | active: 15.8 µM |
| O=C(N/N=C/C=C/c1ccco1)c1cccs1 | – | active: 17.8 µM |
| COc1cccc(-c2nnc(SCC(=O)OC(C)C)n2Cc2ccco2)c1 | inactive: 1.9% | – |
| CC(=O)n1cc([C@H]2C=C(C(=O)N3CCN(Cc4ccc5c(c4)OCO5)CC3)O[C@@H](OCc3ccc(CO)cc3)C2)c2ccccc21 | inactive: 2.26% | – |
| O=C(N/N=C/C(Br)=C\c1ccccc1)c1cccs1 | inactive: 5.01% | – |

| SMILES | GFP activation | Potency |
| --- | --- | --- |
| Cc1cc(Cl)ccc1OCC(=O)OC(C)C(=O)N(C)C (stereo unspecified) | inactive: -5.46% | – |
| Cc1ccccc1CN1c2ccccc2-c2nc(SCC(=O)NCCc3ccccc3)ncc2S1(=O)=O | – | active: 22.4 µM |
| Cc1cc(/C=C\c2ccc3cc(N(C)C)ccc3[n+]2C)c(C)n1-c1ccccc1 | inactive: 11.3% [at 16.9 µM] | – |
| CCCc1nnc(NC(=O)CC(=O)OCC)s1 | inactive: 1.08% | – |
| CN(c1ccccc1)c1ccc(/C=c2\s/c(=C(/C#N)C(=O)C(C)(C)C)n(Cc3ccco3)c2=O)cc1 | – | active: 6.31 µM |
| COc1ccccc1N1CCN(Cc2cc(COC(C)C)c3cccnc3c2O)CC1 | – | active: 3.55 µM |
| COc1ccc2oc(=O)c(-c3nc4ccc(C)cc4[nH]3)cc2c1 | – | active: 11.2 µM |
| COc1ccccc1NC(=O)c1nnn(CC(=O)Nc2cccc(SC)c2)c1N | inactive: -17.5% | – |
| O=C1Cc2c([nH]c3ccc(Br)cc23)-c2ccccc2N1 | inactive: 16.9% | – |
| CCCCNC(=O)CCC(=O)NNc1nc2ccccc2c2nc(-c3ccccc3)nn12 | inactive: -1.11% | – |
| CC(=O)Nc1cc(C(F)(F)F)ccc1OCC1CCCO1 (stereo unspecified) | inactive: -3.37% | – |
| CN1CCN(S(=O)(=O)c2ccc(N(C)CC(=O)Nc3ccc(F)cc3)nc2)CC1 | inactive: -7.78% | – |
| N#C/C(=C/c1ccc(N2CCOCC2)o1)c1nc2ccccc2[nH]1 | – | active: 15.8 µM |
| CC1CCN(S(=O)(=O)c2nnc(NC(=O)c3cccc(F)c3)s2)CC1 | – | active: 12.6 µM |
| Cc1cccc(NC(=O)CSc2nc(-c3cccs3)cc(C(F)(F)F)c2C#N)c1 | – | active: 14.1 µM |
| CCCCN(c1ccccc1)S(=O)(=O)c1ccc2c(c1)CCN2C(=O)CCC(=O)O | inactive: -15.2% | – |
| Cc1ccc2nc(NCCCNC(=O)c3cnccn3)c(C#N)cc2c1 | inactive: -7.69% | – |
| COc1ccc(-n2c(C)cc(/C=C3\SC(=S)NC3=O)c2C)cc1 | – | active: 25.1 µM |
| CC(C)(C)OC(=O)NCCc1nnc(SCC(N)=O)o1 | inactive: -5.26% | – |
| Cc1ccc(-n2c(=O)c3ccc(C(=O)NCc4ccco4)cc3n(Cc3ccccc3C#N)c2=O)cc1 | inactive: 14.9% | – |
| CCN1CCN(c2c(/C=C3\SC(=S)N(Cc4ccco4)C3=O)c(C)c(C#N)c(=O)n2C)CC1 | – | active: 7.08 µM |
| CC1=C(C(=O)N2CCCCC2)C(c2cccs2)C2=C(CCCC2=O)N1 (stereo unspecified) | inactive: -6.35% | – |
| Cc1ccc(Cn2nnc3c(=O)n(CC(=O)c4ccccc4)cnc32)cc1 | inactive: 2.56% | – |
| COc1ccccc1-[n+]1c(C)cc(/C=C2\Sc3ccccc3N2C)cc1C | – | active: 7.94 µM |
| COc1cccc(OCCOCCN(C)CCO)c1 | inactive: -15.9% | – |
| COc1ccc(-n2cc(-c3ccccc3)c3c(N4CCN(CCO)CC4)ncnc32)cc1 | inactive: 0% | – |

| SMILES | GFP activation | Potency |
| --- | --- | --- |
| N#Cc1c(-c2ccc(F)cc2)cc(C2CC2)nc1SCC(=O)c1cccs1 | – | active: 10 µM |
| CN(C)c1ccc(CN(C(=O)C2COc3ccccc3O2)C2CCS(=O)(=O)C2)cc1 (stereo unspecified) | inactive: 4.14% | – |
| CCCOCC(O)COc1ccccc1C(=O)N1CCOCC1 (stereo unspecified) | inactive: -6.29% | – |
| COc1cc(COc2cc(N)c(Cl)cc2C(=O)CCC2CCN(CCNS(C)(=O)=O)CC2)cc(OC)c1 | inactive: 11.1% | – |
| Cc1nonc1NC(=O)CSc1nc2c(C)cccc2cc1C#N | – | active: 15.8 µM |
| N#C/C(=C\c1ccc([N+](=O)[O-])o1)c1nc2ccccc2[nH]1 | – | active: 2.82 µM |
| CCCCC/C=C/C=C1/C(=O)C=C[C@@H]1C/C=C\CCCC(=O)O | – | inactive |
| Nc1c2ccccc2nc2ccccc12 | inactive: 0% | – |
| COC(=O)C1CCN(C(=O)c2sc3nc(-c4ccc(F)cc4)cn3c2C)CC1 | inactive: -12.1% | – |
| CCN(c1ccc(N=Cc2c(O)n(Cc3ccc(OC)cc3)c(=O)c3ccccc23)cc1)C(C)C | – | active: 2 µM |
| CCc1cccc2cc3c(N)c(C(=O)Nc4ccc(S(=O)(=O)N5CCCC5)cc4)sc3nc12 | – | active: 11.2 µM |
| COc1cccc2c1C(=O)c1c(O)c3c(c(O)c1C2=O)C[C@@](O)(C(C)=O)C[C@@H]3O[C@H]1C[C@H](N)[C@H](O)[C@H](C)O1 | – | inactive |
| COC(=O)C(NC(C)=O)(Nc1nc2ccc(S(C)(=O)=O)cc2s1)C(F)(F)F (stereo unspecified) | inactive: -8.62% | – |
| Cc1sc2nc(SCC(=O)NCc3ccco3)n(CCc3ccccc3)c(=O)c2c1C | inactive: -14.3% | – |
| COc1cc(/C=C2/CC/C(=C/c3ccc(O)c(OC)c3)C2=O)ccc1O | – | active: 25.1 µM |
| O=C(C1=C[C@H](c2csc3ccccc23)C[C@H](OCc2ccc(CO)cc2)O1)N1CCN(Cc2ccccc2)CC1 | inactive: 13.8% | – |
| Cc1ccc(-n2c(SCC(=O)N3CCOCC3)nnc2-c2ccncc2)cc1 | inactive: 1.28% | – |
| COC(=O)c1c(C)[nH]c(C(=O)OCc2ccc(F)cc2)c1C | inactive: -10.8% | – |
| CCOc1ccc(-n2c(SCC(=O)Nc3nccs3)nc3c(c2=O)SCC3)cc1 | inactive: 0.381% | – |
| COc1ccccc1CNC(=O)C(C)NS(=O)(=O)c1ccccc1 (stereo unspecified) | inactive: -15.9% | – |
| Cc1cc2n(n1)C(c1sccc1C)Nc1c(C)cccc1-2 (stereo unspecified) | inactive: -1.9% | – |
| O=C1Nc2ccccc2OC1CC(=O)N1CCCC1 (stereo unspecified) | inactive: -0.901% | – |
| Cc1ccc(-c2noc(-c3ccccc3NC(=O)C3CC(=O)N(c4cccc(C)c4)C3)n2)cc1 (stereo unspecified) | – | active: 15.8 µM |
| CCC1S/C(=C(\C#N)C(=O)NCc2ccco2)N(c2ccc(F)cc2)C1=O (stereo unspecified) | inactive: -16.6% | – |
